{"source": "PubChem BioAssay AID686971", "about": "(National Center for Advancing Translational Sciences (NCATS), 2013)", "note": "Hit rate of the full screen: of about 360,000 compounds, about 7,500 (2.1%) were called active. The shares of active, inactive and inconclusive entries below differ from those in the screen. Calls follow the shape of the dose curve; as a rule, active = well fitted cell-killing curve with a large enough effect; inconclusive = small, poorly fitted or top-dose-only effect, or effect the other way, or another doubt; inactive = no such curve, though single readings can be large or run the other way. Potencies of inconclusive entries are left out as doubtful fits. Potency is read from the fitted curve at half-maximal effect; tags tell the direction and shape of the fitted curve.", "data": [{"test": "qHTS for induction of synthetic lethality in tumor cells producing 2HG: qHTS for the HT-1080-IDH1KD cell line;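 as to activity, negative = toxicity: 0% = DMSO wells and -100% = cell-free medium wells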", "details": "HT-1080 IDH1 knockdown viability, ATP luminescence, 48 h; activity, negative = toxicity: at 46.1 µM (top of the series) unless noted", "outline": "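In this qHTS, HT-1080 cells depleted of IDH1 are exposed for 48 h at 37 °C to compound titrations. Toxicity is scored from CellTiter-Glo luminescence, with DMSO as full viability and medium alone as none.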", "values": [{"smiles": "COc1cc(OC)cc(C(=O)N/N=C/c2ccc(OC)c(COc3ccc4ccccc4c3)c2)c1", "Potency": "active: 20.6 µM"}, {"smiles": "C=CCn1c(SCC#N)nc2sc(CC)cc2c1=O", "Potency": "inactive"}, {"smiles": "CC(C)(C)c1ccc(Oc2ccc(NC(=O)c3cccs3)cn2)cc1", "Potency": "active: 11.6 µM"}, {"smiles": "NC(=O)CC1C(=O)N(c2ccc(Cl)cc2)C(=S)N1NC(=O)c1cccc(F)c1", "note": "(stereo not drawn)", "Potency": "inactive"}, {"smiles": "CO[C@H]1CN(C)C(=O)c2ccc(NC(=O)C3CCC3)cc2OC[C@H](C)N(CC2CCCCC2)C[C@@H]1C", "Potency": "inconclusive [cytotoxic, single point]"}, {"smiles": "COc1ccc(-c2cc(CNS(=O)(=O)c3ccc(F)cc3)on2)cc1", "Potency": "inactive"}, {"smiles": "CC1(C(=O)NC2CCCC2)CCN1C(=O)Cc1ccc(-c2ccccc2)cc1", "note": "(stereo not drawn)", "Potency": "inconclusive [cytotoxic, single point]"}, {"smiles": "CCn1nc(C)c(CN2CCc3c([nH]c4ccccc34)C2c2ccc(F)c(OC)c2)c1C", "note": "(stereo not drawn)", "Potency": "inactive"}, {"smiles": "CCOc1cccc(C2NC(=S)NC(C)=C2C(=O)Nc2ccccc2)c1", "note": "(stereo not drawn)", "Potency": "inconclusive [cytotoxic, partial curve]"}, {"smiles": "CCn1c(SCC(=O)c2ccccc2)nc2sc3c(c2c1=O)CCN(C)C3", "Potency": "inactive"}, {"smiles": "Cc1cc(Nc2cnc3ccccc3n2)n(-c2ccccc2)n1", "Potency": "inactive"}, {"smiles": "COC(=O)C1=C(C)NC(C)=C(C(=O)OC)C1c1cc2ccc(C)cc2[nH]c1=O", "Potency": "inconclusive [cytotoxic, single point]"}, {"smiles": "O=C(Nc1nccs1)c1cc2c(s1)CCCCC2", "Potency": "inconclusive [cytotoxic, single point]"}, {"smiles": "COCc1ccc(C(=O)NC2CCCc3c2cnn3-c2cc(C)cc(C)c2)s1", "note": "(stereo not drawn)", "Potency": "inconclusive [cytotoxic, single point]"}, {"smiles": "COc1ccc(NC(=O)CN(c2ccc([N+](=O)[O-])cc2)S(=O)(=O)c2ccccc2)cc1", "Potency": "inconclusive [cytotoxic, partial curve]"}, {"smiles": "CCOC(=O)C1(C)CCN1C(=O)c1cccc(C#N)c1", "note": "(stereo not drawn)", "Potency": "inactive"}, {"smiles": "COc1ccc(C2CCCN2C(=O)Nc2ccc(C)c(C)c2)cc1OC", "note": "(stereo not drawn)", "Potency": "inactive"}, {"smiles": "COc1ccc(-c2nnc3ccc(SC)nn23)cc1", "Potency": "inconclusive [cytotoxic, single point]"}, {"smiles": "Fc1ccc(-c2nc3ccc(Cl)cn3c2Cc2cccc(Cl)c2)cc1", "Potency": "inconclusive [cytotoxic, single point]"}, {"smiles": "COc1ccccc1C1C=C(c2ccccc2)Nc2nnnn21", "note": "(stereo not drawn)", "Potency": "active: 16.4 µM"}, {"smiles": "O=S(=O)(Nc1cccnc1)c1ccc(C2CCCCC2)cc1", "Potency": "inconclusive [cytotoxic, single point]"}, {"smiles": "Cc1ccc(C(=O)Nc2nnc(C3CCCCC3)s2)o1", "activity, negative = toxicity": "inconclusive: 9.15%"}, {"smiles": "CCOC(=O)C1=C(CC)OC(N)=C(C#N)C1c1ccsc1", "note": "(stereo not drawn)", "Potency": "inactive"}, {"smiles": "Cc1nn(-c2ccccc2)c(C)c1/C=N/NC(=O)CSc1nnc(SCc2ccc(Cl)cc2)s1", "Potency": "inconclusive [cytotoxic, single point]"}, {"smiles": "CCCn1c(CCl)nc2cc(S(=O)(=O)N3CCOCC3)ccc21", "Potency": "inactive"}, {"smiles": "Cc1ccc(-c2csc(NC3OC(=O)c4ccccc43)n2)cc1", "note": "(stereo not drawn)", "Potency": "active: 11.6 µM"}, {"smiles": "Cc1ccc2nc(-c3ccccc3)cc(C(=O)O)c2c1", "Potency": "inconclusive [cytotoxic, single point]"}, {"smiles": "COc1cnc(-c2ccccn2)nc1N(C)c1ccccc1", "Potency": "inconclusive [cytotoxic, partial curve]"}, {"smiles": "Cc1cc2nc(-c3ccc(SCc4ccc(C#N)cc4)nc3)[nH]c2cc1C", "Potency": "inconclusive [cytotoxic, single point]"}, {"smiles": "O=C(Nc1ccc(Cl)c([N+](=O)[O-])c1)C(Sc1ccccc1)c1ccccc1", "note": "(stereo not drawn)", "Potency": "active: 20.6 µM"}, {"smiles": "c1csc(CNc2nc(Oc3ccncc3)c3sccc3n2)c1", "Potency": "inconclusive [cytotoxic, single point]"}, {"smiles": "O=C(Cn1cnc2c(cnn2-c2ccc(Cl)cc2)c1=O)N1CCN(c2ccccc2)CC1", "Potency": "inconclusive [cytotoxic, partial curve]"}, {"smiles": "CC(=O)OCC(=O)[C@@]1(O)CC[C@H]2[C@@H]3CCC4=CC(=O)C=C[C@]4(C)[C@H]3[C@@H](O)C[C@@]21C", "Potency": "inconclusive [rising, partial curve]"}, {"smiles": "CSc1nc(N(C)NC(=O)c2ccccc2)c2ccccc2n1", "Potency": "active: 0.58 µM"}, {"smiles": "Cc1nc(Cl)sc1C(=O)Nc1cccc(Cl)c1C", "Potency": "inactive"}, {"smiles": "O=C(Nc1nc2cc3c(cc2s1)OCO3)C1=COCCO1", "Potency": "active: 18.4 µM"}, {"smiles": "COc1ccccc1N(C)S(=O)(=O)c1ccc(C(=O)NCC(C)C)cc1", "Potency": "inactive"}, {"smiles": "O=C1S/C(=C\\c2ccc(O)c([N+](=O)[O-])c2)C(=O)N1c1ccccc1Cl", "Potency": "inconclusive [cytotoxic, single point]"}, {"smiles": "COc1cc(C2C3=C(COC3=O)Oc3cc4c(cc32)OCO4)ccc1OC(C)=O", "note": "(stereo not drawn)", "Potency": "active: 5.8 µM"}, {"smiles": "C=CCOc1cccn2c(N(C)C(=O)c3ccc(OC)cc3)c(CC)nc12", "Potency": "inconclusive [rising, single point]"}, {"smiles": "O=C(Nc1ccc(Cl)cc1)c1ccc2c(c1)OCO2", "Potency": "inactive"}, {"smiles": "COc1ccc2c(c1)c(C(=O)N/N=C/c1ccc(Cl)cc1)c(C)n2C", "Potency": "inconclusive [cytotoxic, partial curve]"}, {"smiles": "CC(=O)Nc1ccc(NC(=O)C2(C)Cc3c(-c4cccc(C(F)(F)F)c4)ccnc3O2)cc1", "note": "(stereo not drawn)", "Potency": "inactive"}, {"smiles": "CS(=O)(=O)N1CCc2cc(S(=O)(=O)Nc3ccc4oc5c(c4c3)CCCC5)ccc21", "Potency": "inconclusive [cytotoxic, single point]"}, {"smiles": "CCc1nc2cc(Cl)c(Cl)cc2[nH]1", "Potency": "inactive"}, {"smiles": "COc1ccc2nc(NC(=O)CSc3nc4ccccc4o3)sc2c1", "Potency": "inconclusive [cytotoxic, single point]"}, {"smiles": "Cn1cc(-c2cnc3c(NC=O)cc(-c4cccc(C(F)(F)F)c4)cn23)cn1", "Potency": "inconclusive [cytotoxic, single point]"}, {"smiles": "COc1ccc(C(C(=O)NC(C)(C)C)n2c(COc3ccc(C)cc3)nc3ccccc32)cc1", "note": "(stereo not drawn)", "Potency": "inconclusive [cytotoxic, single point]"}]}]}
